# The supplement of paper PMC3334620
# Over roughly 33,000 sequences, “E-score (-0.5 to 0.5)” has its median near -0.054; the highest 2% begin near 0.35. This is one part of the list.
# Biological target: T1, Stb5 (UniProt P38699)
# T1 sequence: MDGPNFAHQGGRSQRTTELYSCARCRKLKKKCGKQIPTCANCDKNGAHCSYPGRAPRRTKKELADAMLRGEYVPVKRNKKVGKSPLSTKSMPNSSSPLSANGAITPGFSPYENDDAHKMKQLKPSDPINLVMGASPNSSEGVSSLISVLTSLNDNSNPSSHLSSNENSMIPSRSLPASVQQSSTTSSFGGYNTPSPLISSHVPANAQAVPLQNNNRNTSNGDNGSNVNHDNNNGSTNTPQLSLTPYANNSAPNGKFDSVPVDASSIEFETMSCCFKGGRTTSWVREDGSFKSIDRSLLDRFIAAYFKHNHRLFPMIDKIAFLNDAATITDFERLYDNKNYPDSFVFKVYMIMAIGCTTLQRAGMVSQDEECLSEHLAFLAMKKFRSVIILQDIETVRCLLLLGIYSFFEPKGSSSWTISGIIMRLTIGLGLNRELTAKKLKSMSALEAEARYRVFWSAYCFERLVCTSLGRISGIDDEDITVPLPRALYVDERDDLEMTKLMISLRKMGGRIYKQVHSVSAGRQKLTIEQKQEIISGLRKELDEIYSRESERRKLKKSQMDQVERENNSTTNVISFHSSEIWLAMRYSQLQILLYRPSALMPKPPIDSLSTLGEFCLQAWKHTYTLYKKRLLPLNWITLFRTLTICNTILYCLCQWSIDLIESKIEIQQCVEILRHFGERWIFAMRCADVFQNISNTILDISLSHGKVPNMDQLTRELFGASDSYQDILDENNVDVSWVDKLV
# Assay: PBM E-score (8-mer binding enrichment) (E-score (-0.5 to 0.5)); higher = stronger / more preferred TF binding; most listed sequences are background and not binding sites
# Conditions: protein concentration: 200 nM; construct: GST-full length
# Procedure, shortened: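 Masliner-normalised scans of fluorescent anti-GST signal were the basis for scoring. That signal came from GST-tagged yeast transcription factors applied at about 100-200 nM to double-stranded universal all-10-mer Agilent arrays on fresh or once-stripped slides. Each ungapped eight-base word, pooled with its reverse complement, received an E-score from the Universal PBM Analysis Suite.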
row,Sequence,PBM E-score
1,GACCAGTA,-0.164
2,GTGAATTA,-0.147
3,ACCCCCAG,-0.249
4,AGCTTCCA,-0.186
5,CTTAGAGC,0.0404
6,ACAGAGGT,-0.243
7,GGGTGGTA,-0.0756
8,CGTTGAAC,0.0757
9,AGCGATAA,0.141
10,CGTAACAC,0.132
11,ACAGGCCT,-0.206
12,GACCACGC,-0.186
13,CCACACGC,-0.0412
14,TCTCGCCA,-0.0843
15,CGTTGTTC,0.0333
16,CAAGTAAA,0.123
17,ACCTGGTC,0.138
18,CGTGCTAC,0.0172
19,CTGGTAGA,0.0406
20,ACAATTTC,0.00176
21,CATTCGGA,0.146
22,CCATCCAA,-0.242
23,CGGGGTAA,0.424
24,ATCTGCCG,0.287
25,CTCGTGAC,-0.163

row,Sequence,PBM E-score
1,ACGACCAA,-0.186
2,ACACTTCG,-0.128
3,CACAGAGG,-0.166
4,GGACCTAC,0.239
5,CCTGGCCG,-0.135
6,AAATTTCT,-0.262
7,CCTATGCA,-0.158
8,AGGTAATG,-0.0324
9,GCTTGGAA,-0.213
10,AATTTAAA,0.056
11,ACACGTAC,-0.258
12,CAACGGTC,0.191
13,AGAGGCGA,-0.261
14,AGAGGCAA,-0.228
15,GCCCCATA,0.0184
16,ACCTTCTA,-0.207
17,GGAGGCCA,-0.138
18,GAGCAATC,-0.0555
19,CCTACGCG,0.015
20,AGTGCTCG,-0.311
21,GCTAGGAA,-0.191
22,CCAACAGA,-0.173
23,CACCTACC,0.0372
24,CAGAAAAA,-0.17
25,CATTCTAG,-0.236

row,Sequence,PBM E-score
1,GGGCTAAA,0.266
2,ATCTCGAG,-0.131
3,CGGGTTTA,0.467
4,AGCGGGGA,0.375
5,ACACCGCT,0.419
6,ACAGAGGC,-0.0371
7,ATAAGTAC,0.133
8,CCAAGGCG,0.117
9,ATTAAGGG,-0.0544
10,GACACCGC,0.454
11,CGTTTTTC,0.0114
12,CCGCAGAC,0.165
13,AAGAAGGA,-0.255
14,TGAGTGCA,-0.0559
15,AAGGATAT,0.0815
16,GAGTCAAC,-0.114
17,CCCGCAAG,0.0585
18,ACACCGCA,0.44
19,AACACCCG,0.306
20,AATTTTTA,0.0864
21,AATTAGGA,-0.0648
22,CGCTTTAC,0.0821
23,GCCAAGGA,-0.0748
24,AACGGGGA,0.288
25,CGCGGACA,0.315

row,Sequence,PBM E-score
1,CGTGTTTA,0.112
2,GCCTGCGA,-0.155
3,TCATCCAA,-0.191
4,AATGAACT,-0.158
5,GCAATTGA,-0.0107
6,GCGGGAGA,0.0756
7,CTGTTAGC,-0.204
8,ACTAAATC,0.104
9,CACACGGC,0.17
10,AAAGATGA,-0.0816
11,CAGTATAG,-0.095
12,AGATTGAG,-0.181
13,GGAAGTGA,-0.00876
14,CAATCACC,0.254
15,AAGATGAC,-0.255
16,CGCGCGCC,0.184
17,CAAAACGC,0.145
18,CCGAACGA,0.147
19,GGGAAACA,0.0246
20,ATTTTTTA,0.0317
21,AATGTATG,-0.0396
22,AGCCCGCG,0.334
23,TGTCGGAA,0.26
24,GATCGCCA,-0.0139
25,GACCGGAA,0.21

row,Sequence,PBM E-score
1,CATCCATG,-0.205
2,CAAACGAC,-0.149
3,AGGGCGAA,-0.0668
4,AAAGCGTG,-0.198
5,CCTGAGGC,-0.0476
6,CCAGCCCA,-0.0866
7,CACTCTTA,-0.179
8,GACACCTC,-0.0935
9,CTTGAAAC,0.0595
10,GCGTGTCA,0.0804
11,GCCCGGGC,0.224
12,ACTCCAGA,-0.267
13,CTTCGACA,-0.252
14,ACTAGTAG,0.0429
15,AGAACGAT,-0.324
16,ATGCGCAC,-0.0251
17,CGGAATAC,0.077
18,AGGTCTCA,0.0073
19,ATCGTACA,-0.121
20,AGGAAGAG,-0.222
21,CATCCTAG,-0.116
22,ACACTCTA,-0.161
23,ACGGAGAG,0.115
24,TACTAAAA,0.0255
25,TCCTCACA,-0.0217

row,Sequence,PBM E-score
1,ACCCGTCT,0.0605
2,AAATGTCA,0.054
3,GAGAGTGA,-0.349
4,CATTCCAA,-0.208
5,CGCCAGAA,0.053
6,CTAGAAGA,-0.173
7,ACCGGCCC,0.336
8,AAGCTCCA,-0.0231
9,TTAGGAAA,0.0483
10,CGGGTATC,-0.0268
11,GCGGTCGA,0.0836
12,AGGAATAC,0.0242
13,TGGGGCAA,-0.247
14,CATAAAGC,-0.0703
15,GGGTTATA,0.257
16,ATACACAG,-0.113
17,ATATTTAG,-0.0484
18,GATCCGGA,0.227
19,ATACGGCG,0.236
20,AATTTCGC,-0.0602
21,ATAGCATC,-0.0173
22,ACACGGCT,0.0007
23,AATTGCTG,-0.056
24,ATACCAAC,0.0376
25,CATACGCG,-0.0103

row,Sequence,PBM E-score
1,GCCATGAA,-0.24
2,CCCTTGCA,-0.16
3,GGAGACGA,-0.0527
4,GTCAGACA,-0.0898
5,ATGCGGCC,0.119
6,CGGCCACC,0.104
7,GCATCGAC,-0.101
8,TAACCCCA,0.195
9,CCAATGAC,-0.105
10,ATCAGCTG,-0.038
11,CCAGGCGA,-0.315
12,GATCGTTA,-0.0591
13,CACCAGAA,-0.107
14,TCCTAAAA,0.0507
15,GATGACGA,-0.302
16,AGGACACA,-0.108
17,CTTCCGAA,0.27
18,AGGAATCA,-0.082
19,AGCCCTGA,-0.144
20,GAGTCGTA,-0.223
21,ACTGAATC,-0.0294
22,GGCCCGTA,0.226
